In the supplement of paper PMC7125110:
± gives the standard error. Variants at the background level are over-represented here.

B1: glmS ribozyme (parent)
chain: AUAAAAGCGCCAGAACUACAGAAAUGUAGUUGACGAGGAGGAGGUUUAUCGAAUUUUCGGCGGAUGCCUCCAAA

Variants of: B1
Assay: self-cleavage kobs at 10000 uM GlcN6P; higher = faster cleavage; RNA array
Settings: with glucosamine-6-phosphate
In short: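 Tracking of barcoded ribozyme variants used a hybridised Cy3 probe at 37 °C, after in situ transcription by E. coli RNA polymerase on sequenced MiSeq chips. The flowed solution held 40 μM to 10 mM glucosamine-6-phosphate in HEPES/KCl/Mg(OAc)2 buffer, and imaging ran over ~14 h. kobs was taken from exponential decay fits of normalised per-tile medians, and kcat and KM from weighted Michaelis–Menten fits.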

Variant	self-cleavage kobs at 10000 uM GlcN6P
A6U U56A G60C	< 1e-05 s⁻¹
G7U U30G U57G C67A	< 1e-05 s⁻¹
G13C G35U U47C A48C C61G C70U	< 1e-05 s⁻¹
G13C U56G A64G C67A	3.32e-05 ± 1.4e-05 s⁻¹
C8U A15C G29A G38U C70A	< 1e-05 s⁻¹
G41U G51U C67A	< 1e-05 s⁻¹
G9C A14U A20C G32A G40C A52G U54G G60C	< 1e-05 s⁻¹
U30G U47C C68U	0.000171 ± 3.3e-05 s⁻¹
G13C G35U U54C	< 1e-05 s⁻¹
A15U C50U C58G	< 1e-05 s⁻¹
G21U A33U C70U	0.000159 ± 2.9e-05 s⁻¹
C8G G32C G35A G43C	< 1e-05 s⁻¹
G41C C67U C70A	2.88e-05 ± 1.3e-05 s⁻¹
A12G C50U A52G U69G C71A	3.23e-05 ± 1.6e-05 s⁻¹
C34A A36U G60C	< 1e-05 s⁻¹
G7A G60A G62U	< 1e-05 s⁻¹
A39U G44A C67G	0.00582 ± 0.0014 s⁻¹
C34A G66U C67G	< 1e-05 s⁻¹
G38A G63A	< 1e-05 s⁻¹
G32C U49C C50U U54A	< 1e-05 s⁻¹
C61U C68A C71U	< 1e-05 s⁻¹
G32U C34U G40A U65C C67U C71G	< 1e-05 s⁻¹

Variant	self-cleavage kobs at 10000 uM GlcN6P
G29C A36C	< 1e-05 s⁻¹
G29U U31G G32C C67A C68G	5.79e-05 ± 2.8e-05 s⁻¹
C34A A42U U69C C71U	< 1e-05 s⁻¹
G13U A48U C70A	< 1e-05 s⁻¹
G7C A14G A39C A48G A53U	< 1e-05 s⁻¹
U31G G43C U45G	0.000273 ± 8.2e-05 s⁻¹
C16A G29U U45G	0.0036 ± 0.00061 s⁻¹
A12C G41A U46G	0.000334 ± 7.8e-05 s⁻¹
G9C C68G C71A	< 1e-05 s⁻¹
G37A G62A G63U	< 1e-05 s⁻¹
G43C U56G	< 1e-05 s⁻¹
C11G U31C A36C	< 1e-05 s⁻¹
C11A U31C U45A	4.34e-05 ± 1.5e-05 s⁻¹
C16U G40U G66U	4.28e-05 ± 1.2e-05 s⁻¹
G43A U55A	8.23e-05 ± 1.2e-05 s⁻¹
C16U A42U G60C	< 1e-05 s⁻¹
G7U G37C G41C	< 1e-05 s⁻¹
C50A G51U G59A U69A	< 1e-05 s⁻¹
G38U G59A C67U	< 1e-05 s⁻¹
G7U U49C U69A	< 1e-05 s⁻¹
G9A A33U U69C	< 1e-05 s⁻¹
G9C G13C A14U U31A A48G C61A	< 1e-05 s⁻¹

Variant	self-cleavage kobs at 10000 uM GlcN6P
A14U G44U U45G U46G	4.76e-05 ± 1.9e-05 s⁻¹
A33G G37A U69G	< 1e-05 s⁻¹
A36C C61A	< 1e-05 s⁻¹
C10G C50U G62U C70G	< 1e-05 s⁻¹
G9A G29C C61A	< 1e-05 s⁻¹
C11A C16G G60U	< 1e-05 s⁻¹
G29C U46A	7.43e-05 ± 1.7e-05 s⁻¹
G40C G41C C50G C61U	< 1e-05 s⁻¹
A6U A39U U54A G60U	< 1e-05 s⁻¹
C10U U46A	< 1e-05 s⁻¹
A33C U49G C67G	< 1e-05 s⁻¹
A12G C16U A42U C61A	< 1e-05 s⁻¹
G7C A14G G59C	< 1e-05 s⁻¹
A12G G32C A48C G59C	< 1e-05 s⁻¹
A14U A42G C58A	0.000409 ± 0.00014 s⁻¹
G41A G44U A52U U57G C68U	< 1e-05 s⁻¹
G9C C16G A48U	< 1e-05 s⁻¹
A33C A52G U54A	< 1e-05 s⁻¹
C16A C50A U65G	< 1e-05 s⁻¹
C10G U55G G63C	< 1e-05 s⁻¹
G9C A33C U57C C61U G62U C71A	< 1e-05 s⁻¹
